Measurements reported in article PMC7819943, “Rice protein-binding microarrays: a tool to detect cis-acting elements near promoter regions in rice”.
This is one part of the list.

target: T1, OsWOX13 (Oryza sativa, UniProt Q5QMM3 1-267); test: protein-binding microarray (RPBM); PBS, 2% BSA, 51.3 ng/ul salmon testes DNA, 50 uM zinc acetate, 200 nM TF, 25 C, 1 h; high values mean tight binding; settings: protein: recombinant; tags: N-terminal polyhistidine and DsRed monomer fusion (pET32a); label: CyDye5-dUTP incorporated in the synthesized complementary strand; 3' TTTTT single-stranded linker to array surface; dsDNA, one strand shown
T1 sequence: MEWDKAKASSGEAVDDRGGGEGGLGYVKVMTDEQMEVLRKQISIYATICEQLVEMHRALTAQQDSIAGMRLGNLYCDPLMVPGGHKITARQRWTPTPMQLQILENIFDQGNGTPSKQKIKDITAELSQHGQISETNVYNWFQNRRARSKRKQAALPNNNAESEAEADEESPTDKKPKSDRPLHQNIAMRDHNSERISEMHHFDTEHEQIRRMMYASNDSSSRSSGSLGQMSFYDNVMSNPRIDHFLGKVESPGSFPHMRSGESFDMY
Summary of the method: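 Binding signal is reported as fluorescence intensity per feature (arbitrary units) from an Axon 4000B scanner. Incubation used 200 nM of each Ni–NTA-purified, N-terminally polyhistidine- and DsRed-fused transcription factor from E. coli BL21-CodonPlus on a double-stranded custom Agilent array for 1 h at 25 °C, with 50 µM zinc acetate in the buffer, followed by washing.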

Sequence	binding signal
TTAACAGATTCTTCTTAATTAATAAATAAGCTGTCATGATCGGAGTCACCTAGTGCAG	17300 fluorescence intensity (a.u.)
AAATTATATATGATTAGTTCTAATCAACCAAAATTATAGTCGGAGTCACCTAGTGCAG	14000 fluorescence intensity (a.u.)
GTGTGATCATATTTACAGCTAATTATTCTTTCAGCGGTAGCGGAGTCACCTAGTGCAG	6810 fluorescence intensity (a.u.)
GTAAATTGAACGGTTTCGTATAATTTAGGGGTGAAGATTTCGGAGTCACCTAGTGCAG	21000 fluorescence intensity (a.u.)
TCGTTAATTATTCAAACATTGCTTGTTCCTCATCTACAGCCGGAGTCACCTAGTGCAG	39400 fluorescence intensity (a.u.)
ATTATATTGATCAATGACTCTGCTACTACTGCTCCCATATCGGAGTCACCTAGTGCAG	15600 fluorescence intensity (a.u.)
GACGATTTGAAGATTACTGAAATTCACATGGCATTATGGTCGGAGTCACCTAGTGCAG	3920 fluorescence intensity (a.u.)
TTAACAATTGGATTTGATATGATTGTGCTTTGTGATGTATCGGAGTCACCTAGTGCAG	13100 fluorescence intensity (a.u.)
CTAATTGATAAGTGTAAAGATATTGTGAGCAACTACAATTCGGAGTCACCTAGTGCAG	42700 fluorescence intensity (a.u.)
CTTGACGGGCTAGGGCCATAACTGAGCATTGCCACGTCAGCGGAGTCACCTAGTGCAG	5460 fluorescence intensity (a.u.)
TGCTAAATTGCTAATACATACCTCTATGTTGTTGTGTTTTCGGAGTCACCTAGTGCAG	18500 fluorescence intensity (a.u.)
CTAATTGGGAGATGGAGCTCGAATTGAGTTCTTGGTGGGGCGGAGTCACCTAGTGCAG	12400 fluorescence intensity (a.u.)
ACCACCTCTAATGAAAGGGTGATTGCAACCACTCATCCATCGGAGTCACCTAGTGCAG	9090 fluorescence intensity (a.u.)
TAATTAGATTGTTAAACCTTAATTGATCTATAGGACCAAACGGAGTCACCTAGTGCAG	28700 fluorescence intensity (a.u.)
TTAAAACTAATACTTAATTAATTATGCGCTAATTTATGTTCGGAGTCACCTAGTGCAG	22000 fluorescence intensity (a.u.)
GATCAGTGCAATTATTGACTTTTCCTTGTGAAATGAAATTCGGAGTCACCTAGTGCAG	3670 fluorescence intensity (a.u.)
AATAATTACAACTACAATTTAATAACGTGAAAGTATTCTACGGAGTCACCTAGTGCAG	11900 fluorescence intensity (a.u.)
TTTGATTTGCAGGTTTAGGTCCAGGTACCCTTGTGGGTTCCGGAGTCACCTAGTGCAG	22600 fluorescence intensity (a.u.)
AGTGGGGATAGGATGGGGAATTGAGGAAGGAACTCCCTCCCGGAGTCACCTAGTGCAG	3360 fluorescence intensity (a.u.)
GATAATTGTCAAACTAAAAGAGATAAATAATTAAATTCCCCGGAGTCACCTAGTGCAG	20400 fluorescence intensity (a.u.)
AAAACAGTTTGATTAGCTTTCTGTCGAATCTGTCATGCATCGGAGTCACCTAGTGCAG	16500 fluorescence intensity (a.u.)

Sequence	binding signal
TGCAAATTGCTGATTTGCTCATTGGTTAGAAAAGGACATCCGGAGTCACCTAGTGCAG	24400 fluorescence intensity (a.u.)
TATCATTTGATTTATTGTTAAATATACTTTCATGTATACACGGAGTCACCTAGTGCAG	12500 fluorescence intensity (a.u.)
TATGATTGTGTTTTATGATGAATTGTTGACCATTGAGACTCGGAGTCACCTAGTGCAG	39300 fluorescence intensity (a.u.)
TATACACGCAATTAGATATATTAGTCTGAACGAGGGCATCCGGAGTCACCTAGTGCAG	3540 fluorescence intensity (a.u.)
GCATTCTCTTTCCAACCAATCACAACCCTTCACCATTCACCGGAGTCACCTAGTGCAG	3440 fluorescence intensity (a.u.)
CCATATTTAATGGATAGATTTATATTGCCATATGGATAATCGGAGTCACCTAGTGCAG	19700 fluorescence intensity (a.u.)
TTATTAATTGATAAAATATAGAAATATTGATTTATTGTTTCGGAGTCACCTAGTGCAG	52500 fluorescence intensity (a.u.)
CAAAATTTTGTTATTGCTAAAATTTGGTAAGGTTTATTTTCGGAGTCACCTAGTGCAG	9750 fluorescence intensity (a.u.)
ATCACCGACTAATTAATTAATTAATTAATCATCCTTGATTCGGAGTCACCTAGTGCAG	38800 fluorescence intensity (a.u.)
GGGGATTAGATCGAACTGTTCGTCTGTTCCCCTCGCCCCTCGGAGTCACCTAGTGCAG	7540 fluorescence intensity (a.u.)
GGAGATGATGAGCTGGTCAAGCTCTACCTTGATCGCGAGGCGGAGTCACCTAGTGCAG	5320 fluorescence intensity (a.u.)
TCACTCTGTTAGACACCGTTAATTTTGTCAAAATGACCAACGGAGTCACCTAGTGCAG	4490 fluorescence intensity (a.u.)
CTAATTAATCCGTCATTAGCAAATGTTTATTATAGCACCACGGAGTCACCTAGTGCAG	13900 fluorescence intensity (a.u.)
TTCCTCCGTATATATCAATCATCGCCCAACTCCAGCTCCCCGGAGTCACCTAGTGCAG	7080 fluorescence intensity (a.u.)
TGAGATAAAATGTGATTTTAGACTTGAGTGGCAAATGGTACGGAGTCACCTAGTGCAG	4000 fluorescence intensity (a.u.)
TTTGCTTAGATTAATCTGTCAAGAACAGTTTCGCCGCTAGCGGAGTCACCTAGTGCAG	6090 fluorescence intensity (a.u.)
ACATAATCCAATCAAGTCTTTGGTTACTACAAATAGAGGCCGGAGTCACCTAGTGCAG	14000 fluorescence intensity (a.u.)
CTTAATTTGCCAGCTGCTTGTGTGTTCTCCTTGCCGATCCCGGAGTCACCTAGTGCAG	27700 fluorescence intensity (a.u.)
ACCTGATGGACCGACCTTCCTCTTATTTTCTTGGATAATTCGGAGTCACCTAGTGCAG	5970 fluorescence intensity (a.u.)
TATTGTCAAATGATATTAATTGATTATGCTGGGGCTAACACGGAGTCACCTAGTGCAG	30700 fluorescence intensity (a.u.)
GACGGATTGCTTTGTGCATTGTCAATCAGTACATCCTCTTCGGAGTCACCTAGTGCAG	7970 fluorescence intensity (a.u.)

Sequence	binding signal
CTAGATTTATAATTAAATAAATTATTATAATATATAACTCCGGAGTCACCTAGTGCAG	42700 fluorescence intensity (a.u.)
GGCCGATTGATTGGGTCCGAGTAATCTCGGAAATGTGGGGCGGAGTCACCTAGTGCAG	53600 fluorescence intensity (a.u.)
TAGGCAATTACGGGCTGAAATTACCAGAAGCTACGGGTCACGGAGTCACCTAGTGCAG	17000 fluorescence intensity (a.u.)
TGTTATAATAATGTGTGATTAAGTTTTAATTATTACAAACCGGAGTCACCTAGTGCAG	20900 fluorescence intensity (a.u.)
TTTAATCAACCCGTGATTTTGTAATTCATATCCATTCATCCGGAGTCACCTAGTGCAG	8690 fluorescence intensity (a.u.)
AATATGATTATTCATAGAGTAAAGTGTACGGGCGATCCTTCGGAGTCACCTAGTGCAG	9750 fluorescence intensity (a.u.)
TGACGGGATTCACTAATTGGAACTTGGTGTTGGGAGTCCCCGGAGTCACCTAGTGCAG	13900 fluorescence intensity (a.u.)
AGCCTATTTAGTCCATGATTAGCTATAAGTGCTACAGTAACGGAGTCACCTAGTGCAG	8930 fluorescence intensity (a.u.)
GTCAATTACTATCTATATACATTGTGGAAATATAAATAACCGGAGTCACCTAGTGCAG	3200 fluorescence intensity (a.u.)
TATATAAATTGGACGTGCGAGGCTGAGAGAGAGACGCACACGGAGTCACCTAGTGCAG	5470 fluorescence intensity (a.u.)
GTTTCAATTATTTGACATCCAACCCCACTTTTATTCACTTCGGAGTCACCTAGTGCAG	10600 fluorescence intensity (a.u.)
CACCATAATTGTATTATTCTAGTGCTTTATCACACAGAATCGGAGTCACCTAGTGCAG	11100 fluorescence intensity (a.u.)
CTCAAATTTAGATAGTTTGTCAACACTGACATTGATTCTCCGGAGTCACCTAGTGCAG	16800 fluorescence intensity (a.u.)
TCTAAGATTGGATTATAGTACGTACATTTGGGCCTTCCCTCGGAGTCACCTAGTGCAG	20100 fluorescence intensity (a.u.)
CTCATTTCCTCATTGATTATAAGCTTGAGCTTTACTTAGTCGGAGTCACCTAGTGCAG	3500 fluorescence intensity (a.u.)
TATAAATTTAGTCAAATTTAAAGCAGTTTGATTTTGACCACGGAGTCACCTAGTGCAG	26800 fluorescence intensity (a.u.)
TGCCAACTTATCCATCAATTGAGATTAATGATTTGGTCTTCGGAGTCACCTAGTGCAG	13900 fluorescence intensity (a.u.)
AGTTCTAATTAGTTTCAACTCGTACACGTAATTGCAATAACGGAGTCACCTAGTGCAG	13200 fluorescence intensity (a.u.)
CCAGTATAATCATTGACTTTTGTGTGCTTAATGCATTTTCCGGAGTCACCTAGTGCAG	5600 fluorescence intensity (a.u.)
CAGTGGAGGGTTGTGATTGGTTATGAAGAGAATGTTGGTGCGGAGTCACCTAGTGCAG	10200 fluorescence intensity (a.u.)
AGTGATGAATTAGCCACCCACAACCACCAACTCCCTGATACGGAGTCACCTAGTGCAG	3560 fluorescence intensity (a.u.)

Sequence	binding signal
TTATGAAATTATTATTTATTTTATTTGTGACTTTCTTTATCGGAGTCACCTAGTGCAG	5930 fluorescence intensity (a.u.)
TAGCAGTGACGGTAATTAGCGCTAACTAGCAATATTTTCCCGGAGTCACCTAGTGCAG	12400 fluorescence intensity (a.u.)
TTGGGCCCAGATTGATTTAAGAAAGCCCATTTAGGCCACTCGGAGTCACCTAGTGCAG	9800 fluorescence intensity (a.u.)
TCTAAATTTTATAGTTATTAAATAACTTTATCACAATAAACGGAGTCACCTAGTGCAG	6790 fluorescence intensity (a.u.)
CATAAACTGAAGCTCATAATTGTTTGTGAAATCGTTTATCCGGAGTCACCTAGTGCAG	16900 fluorescence intensity (a.u.)
GTCAATAGCTAAATTTATGATACTTATAACACATTGGAGGCGGAGTCACCTAGTGCAG	4030 fluorescence intensity (a.u.)
CAAATTTAAATTTGAATTATATCCGATTTAAATTTGAATTCGGAGTCACCTAGTGCAG	21800 fluorescence intensity (a.u.)
AGCAAATGATCCATCATCATGTATTTGCTAGTATTACAGTCGGAGTCACCTAGTGCAG	4330 fluorescence intensity (a.u.)
ATTACACAGATTGCATATAAATTGCGAGACAAATCTTTTACGGAGTCACCTAGTGCAG	10000 fluorescence intensity (a.u.)
ATTAATTATCTAATTAATTAATTAGCCCATCTGCTTACTTCGGAGTCACCTAGTGCAG	65000 fluorescence intensity (a.u.)
AATAAACTGCAAACTATAACCCCTACCAGGGTTCACAATTCGGAGTCACCTAGTGCAG	4460 fluorescence intensity (a.u.)
TGGTGATCGAAATTGTCAAGTGCTTGAGTAGATAGAGATTCGGAGTCACCTAGTGCAG	5460 fluorescence intensity (a.u.)
TTTTATTACCTTAATTTTACTTTGGATCACCTCGACTCTCCGGAGTCACCTAGTGCAG	4050 fluorescence intensity (a.u.)
ATCTTATTATTGTTATTTAATTTAGTTAAAATGAAATTCACGGAGTCACCTAGTGCAG	5810 fluorescence intensity (a.u.)
TTGATTTGAAAGGTACTACCTCTGTTTCAGGTTAGAAAGTCGGAGTCACCTAGTGCAG	3380 fluorescence intensity (a.u.)
ATACATTGATTAATCAGCCAGCCAGCCAGCCAGCCACTGACGGAGTCACCTAGTGCAG	28700 fluorescence intensity (a.u.)
AACAACAAATTTGGATGTCTGATTTGTTCTCAGGTTTGATCGGAGTCACCTAGTGCAG	30200 fluorescence intensity (a.u.)
TTCAAATTTTAATAATTTAAGATATTGATATTTAACTGTACGGAGTCACCTAGTGCAG	32500 fluorescence intensity (a.u.)
TTACTTCCATCATATAGTAATTGCATTTCTAGACAAATTACGGAGTCACCTAGTGCAG	3740 fluorescence intensity (a.u.)
TTAATTATTTTGCTGACATGATTTGTTTTCATTTCGTTGACGGAGTCACCTAGTGCAG	24100 fluorescence intensity (a.u.)
ACCAAATAGATTGATCGATCGCCCAGTTCGATTATTTATTCGGAGTCACCTAGTGCAG	36300 fluorescence intensity (a.u.)
